Assay results from the supplement of paper PMC11876631.
± gives the standard deviation of the averaged measurements. Laboratory Escherichia coli strains with one amino-acid change in an essential protein, pooled on minimal glucose agar with carbenicillin or gentamicin at twice the control MIC (plus kanamycin and chloramphenicol for the plasmids), 48 h. Fold change of barcode share against drug-free plates; higher = less susceptible. Active = above 20 in both replicates (the paper's putatively resistant). '<' = one read or none on drug, '>' = one read or none on a drug-free plate. Shares are relative, so most strains fall below 1 when a few take over. Listed are strains with at least 15 reads on both drug-free plates, and hits; most hits rest on fewer reference reads. Replicate rank correlation about 0.5. Edits are read from barcodes.

B1: argH L339P (protein)
chain: MALWGGRFTQAADQRFKQFNDSLRFDYRLAEQDIVGSVAWSKALVTVGVLTAEEQAQLEEALNVLLEDVRARPQQILESDAEDIHSWVEGKLIDKVGQLGKKLHTGRSRNDQVATDLKLWCKDTVSELLTANRQLQSALVETAQNNQDAVMPGYTHLQRAQPVTFAHWCLAYVEMLARDESRLQDALKRLDVSPLGCGALAGTAYEIDREQLAGWLGFASATRNSLDSVSDRDHVLELLSAAAIGMVHLSRFAEDLIFFNTGEAGFVELSDRVTSGSSLMPQKKNPDALELIRGKCGRVQGALTGMMMTLKGLPLAYNKDMQEDKEGLFDALDTWLDCPHMAALVLDGIQVKRPRCQEAAQQGYANATELADYLVAKGVPFREAHHIVGEAVVEAIRQGKPLEDLPLSELQKFSQVIDEDVYPILSLQSCLDKRAAKGGVSPQQVAQAIAFAQARLG
B2: argH M341D (protein)
chain: MALWGGRFTQAADQRFKQFNDSLRFDYRLAEQDIVGSVAWSKALVTVGVLTAEEQAQLEEALNVLLEDVRARPQQILESDAEDIHSWVEGKLIDKVGQLGKKLHTGRSRNDQVATDLKLWCKDTVSELLTANRQLQSALVETAQNNQDAVMPGYTHLQRAQPVTFAHWCLAYVEMLARDESRLQDALKRLDVSPLGCGALAGTAYEIDREQLAGWLGFASATRNSLDSVSDRDHVLELLSAAAIGMVHLSRFAEDLIFFNTGEAGFVELSDRVTSGSSLMPQKKNPDALELIRGKCGRVQGALTGMMMTLKGLPLAYNKDMQEDKEGLFDALDTWLDCLHDAALVLDGIQVKRPRCQEAAQQGYANATELADYLVAKGVPFREAHHIVGEAVVEAIRQGKPLEDLPLSELQKFSQVIDEDVYPILSLQSCLDKRAAKGGVSPQQVAQAIAFAQARLG
B3: argH M341P (protein)
chain: MALWGGRFTQAADQRFKQFNDSLRFDYRLAEQDIVGSVAWSKALVTVGVLTAEEQAQLEEALNVLLEDVRARPQQILESDAEDIHSWVEGKLIDKVGQLGKKLHTGRSRNDQVATDLKLWCKDTVSELLTANRQLQSALVETAQNNQDAVMPGYTHLQRAQPVTFAHWCLAYVEMLARDESRLQDALKRLDVSPLGCGALAGTAYEIDREQLAGWLGFASATRNSLDSVSDRDHVLELLSAAAIGMVHLSRFAEDLIFFNTGEAGFVELSDRVTSGSSLMPQKKNPDALELIRGKCGRVQGALTGMMMTLKGLPLAYNKDMQEDKEGLFDALDTWLDCLHPAALVLDGIQVKRPRCQEAAQQGYANATELADYLVAKGVPFREAHHIVGEAVVEAIRQGKPLEDLPLSELQKFSQVIDEDVYPILSLQSCLDKRAAKGGVSPQQVAQAIAFAQARLG
B4: argH M341W (protein)
chain: MALWGGRFTQAADQRFKQFNDSLRFDYRLAEQDIVGSVAWSKALVTVGVLTAEEQAQLEEALNVLLEDVRARPQQILESDAEDIHSWVEGKLIDKVGQLGKKLHTGRSRNDQVATDLKLWCKDTVSELLTANRQLQSALVETAQNNQDAVMPGYTHLQRAQPVTFAHWCLAYVEMLARDESRLQDALKRLDVSPLGCGALAGTAYEIDREQLAGWLGFASATRNSLDSVSDRDHVLELLSAAAIGMVHLSRFAEDLIFFNTGEAGFVELSDRVTSGSSLMPQKKNPDALELIRGKCGRVQGALTGMMMTLKGLPLAYNKDMQEDKEGLFDALDTWLDCLHWAALVLDGIQVKRPRCQEAAQQGYANATELADYLVAKGVPFREAHHIVGEAVVEAIRQGKPLEDLPLSELQKFSQVIDEDVYPILSLQSCLDKRAAKGGVSPQQVAQAIAFAQARLG
B5: argH M341Q (protein)
chain: MALWGGRFTQAADQRFKQFNDSLRFDYRLAEQDIVGSVAWSKALVTVGVLTAEEQAQLEEALNVLLEDVRARPQQILESDAEDIHSWVEGKLIDKVGQLGKKLHTGRSRNDQVATDLKLWCKDTVSELLTANRQLQSALVETAQNNQDAVMPGYTHLQRAQPVTFAHWCLAYVEMLARDESRLQDALKRLDVSPLGCGALAGTAYEIDREQLAGWLGFASATRNSLDSVSDRDHVLELLSAAAIGMVHLSRFAEDLIFFNTGEAGFVELSDRVTSGSSLMPQKKNPDALELIRGKCGRVQGALTGMMMTLKGLPLAYNKDMQEDKEGLFDALDTWLDCLHQAALVLDGIQVKRPRCQEAAQQGYANATELADYLVAKGVPFREAHHIVGEAVVEAIRQGKPLEDLPLSELQKFSQVIDEDVYPILSLQSCLDKRAAKGGVSPQQVAQAIAFAQARLG
B6: argH M341A (protein)
chain: MALWGGRFTQAADQRFKQFNDSLRFDYRLAEQDIVGSVAWSKALVTVGVLTAEEQAQLEEALNVLLEDVRARPQQILESDAEDIHSWVEGKLIDKVGQLGKKLHTGRSRNDQVATDLKLWCKDTVSELLTANRQLQSALVETAQNNQDAVMPGYTHLQRAQPVTFAHWCLAYVEMLARDESRLQDALKRLDVSPLGCGALAGTAYEIDREQLAGWLGFASATRNSLDSVSDRDHVLELLSAAAIGMVHLSRFAEDLIFFNTGEAGFVELSDRVTSGSSLMPQKKNPDALELIRGKCGRVQGALTGMMMTLKGLPLAYNKDMQEDKEGLFDALDTWLDCLHAAALVLDGIQVKRPRCQEAAQQGYANATELADYLVAKGVPFREAHHIVGEAVVEAIRQGKPLEDLPLSELQKFSQVIDEDVYPILSLQSCLDKRAAKGGVSPQQVAQAIAFAQARLG
B7: hisS V316A (protein)
chain: MAKNIQAIRGMNDYLPGETAIWQRIEGTLKNVLGSYGYSEIRLPIVEQTPLFKRAIGEVTDVVEKEMYTFEDRNGDSLTLRPEGTAGCVRAGIEHGLLYNQEQRLWYIGPMFRHERPQKGRYRQFHQLGCEVFGLQGPDIDAELIMLTARWWRALGISEHVTLELNSIGSLEARANYRDALVAFLEQHKEKLDEDCKRRMYTNPLRVLDSKNPEVQALLNDAPALGDYLDEESREHFAGLCKLLESAGIAYTVNQRLVRGLDYYNRTVFEWVTNSLGSQGTVCAGGRYDGLVEQLGGRATPAVGFAMGLERLVLLAQAVNPEFKADPVVDIYLVASGADTQSAAMALAERLRDELPGVKLMTNHGGGNFKKQFARADKWGARVAVVLGESEVANGTAVVKDLRSGEQTAVAQDSVAAHLRTLLG
B8: hisS V316W (protein)
chain: MAKNIQAIRGMNDYLPGETAIWQRIEGTLKNVLGSYGYSEIRLPIVEQTPLFKRAIGEVTDVVEKEMYTFEDRNGDSLTLRPEGTAGCVRAGIEHGLLYNQEQRLWYIGPMFRHERPQKGRYRQFHQLGCEVFGLQGPDIDAELIMLTARWWRALGISEHVTLELNSIGSLEARANYRDALVAFLEQHKEKLDEDCKRRMYTNPLRVLDSKNPEVQALLNDAPALGDYLDEESREHFAGLCKLLESAGIAYTVNQRLVRGLDYYNRTVFEWVTNSLGSQGTVCAGGRYDGLVEQLGGRATPAVGFAMGLERLVLLWQAVNPEFKADPVVDIYLVASGADTQSAAMALAERLRDELPGVKLMTNHGGGNFKKQFARADKWGARVAVVLGESEVANGTAVVKDLRSGEQTAVAQDSVAAHLRTLLG
B9: hisS V316Q (protein)
chain: MAKNIQAIRGMNDYLPGETAIWQRIEGTLKNVLGSYGYSEIRLPIVEQTPLFKRAIGEVTDVVEKEMYTFEDRNGDSLTLRPEGTAGCVRAGIEHGLLYNQEQRLWYIGPMFRHERPQKGRYRQFHQLGCEVFGLQGPDIDAELIMLTARWWRALGISEHVTLELNSIGSLEARANYRDALVAFLEQHKEKLDEDCKRRMYTNPLRVLDSKNPEVQALLNDAPALGDYLDEESREHFAGLCKLLESAGIAYTVNQRLVRGLDYYNRTVFEWVTNSLGSQGTVCAGGRYDGLVEQLGGRATPAVGFAMGLERLVLLQQAVNPEFKADPVVDIYLVASGADTQSAAMALAERLRDELPGVKLMTNHGGGNFKKQFARADKWGARVAVVLGESEVANGTAVVKDLRSGEQTAVAQDSVAAHLRTLLG
B10: hisS V316P (protein)
chain: MAKNIQAIRGMNDYLPGETAIWQRIEGTLKNVLGSYGYSEIRLPIVEQTPLFKRAIGEVTDVVEKEMYTFEDRNGDSLTLRPEGTAGCVRAGIEHGLLYNQEQRLWYIGPMFRHERPQKGRYRQFHQLGCEVFGLQGPDIDAELIMLTARWWRALGISEHVTLELNSIGSLEARANYRDALVAFLEQHKEKLDEDCKRRMYTNPLRVLDSKNPEVQALLNDAPALGDYLDEESREHFAGLCKLLESAGIAYTVNQRLVRGLDYYNRTVFEWVTNSLGSQGTVCAGGRYDGLVEQLGGRATPAVGFAMGLERLVLLPQAVNPEFKADPVVDIYLVASGADTQSAAMALAERLRDELPGVKLMTNHGGGNFKKQFARADKWGARVAVVLGESEVANGTAVVKDLRSGEQTAVAQDSVAAHLRTLLG
B11: hisS V316D (protein)
chain: MAKNIQAIRGMNDYLPGETAIWQRIEGTLKNVLGSYGYSEIRLPIVEQTPLFKRAIGEVTDVVEKEMYTFEDRNGDSLTLRPEGTAGCVRAGIEHGLLYNQEQRLWYIGPMFRHERPQKGRYRQFHQLGCEVFGLQGPDIDAELIMLTARWWRALGISEHVTLELNSIGSLEARANYRDALVAFLEQHKEKLDEDCKRRMYTNPLRVLDSKNPEVQALLNDAPALGDYLDEESREHFAGLCKLLESAGIAYTVNQRLVRGLDYYNRTVFEWVTNSLGSQGTVCAGGRYDGLVEQLGGRATPAVGFAMGLERLVLLDQAVNPEFKADPVVDIYLVASGADTQSAAMALAERLRDELPGVKLMTNHGGGNFKKQFARADKWGARVAVVLGESEVANGTAVVKDLRSGEQTAVAQDSVAAHLRTLLG

Each protein was assayed against Escherichia coli (laboratory strain) (assay: barcode share on antibiotic plates over drug-free plates; higher = less susceptible). Details: antibiotic: carbenicillin; 2× MIC (3.1 µg/mL).
Method: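 A pool of E. coli strains, each edited to carry one amino-acid change in an essential protein, was grown for 48 h on minimal glucose agar with or without antibiotic; strain barcodes were sequenced; mean of two replicates.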

Row | Protein | fold change of barcode share
1 | B1 | 0.385 ± 0.032
2 | B2 | 1.27 ± 0.14
3 | B3 | 16 ± 2.9
4 | B4 | 1.34 ± 0.14
5 | B5 | 0.799 ± 0.15
6 | B6 | 1.25 ± 0.3
7 | B7 | 0.293 ± 0.19
8 | B8 | 0.202 ± 0.071
9 | B9 | 0.222 ± 0.02
10 | B10 | 0.293 ± 0.11
11 | B11 | 0.29 ± 0.11

Same assay, conditions: antibiotic: gentamicin; 2× MIC (MIC 0.45 µg/mL)

Row | Protein | fold change of barcode share
12 | B1 | 0.0488 ± 0.051
13 | B2 | 0.0216 ± 0.0044
14 | B4 | 0.0138 ± 0.002
15 | B5 | 0.0108 ± 0.0048
16 | B6 | 0.011 ± 0.0022
17 | B7 | 0.00732 ± 0.0058
18 | B8 | < 0.00788
19 | B9 | < 0.00674
20 | B10 | < 0.0091
21 | B11 | < 0.00546
